Measured values: a collection of fitness landscapes (doi:10.1016/j.celrep.2020.107928)
Over roughly 81,000 sequences, “one-hybrid fitness for binding NBS DNA” has its median near -0.1; the highest 2% begin near 0.36. The list shows a part of the results.

B1: Caulobacter ParB omega fusion; a variant is named by its letters at X, in order, B8GW30 (parent)
chain: MESVVVGEPGMSEGRRGLGRGLSALLGEVDAAPAQAPGEQLGGSREAPIEILQRNPDQPRRTFREEDLEDLSNSIREKGVLQPILVRPSPDTAGEYQIVAGERAWRAAQRAGLKTVPIMVRELDDLAVLEIGIIENVQRADLNVLEEALSYKVLMEKFERTQENIAQTIGKSXSHVANXMRLLXLPDEVQSYLVSGELTAXHARAIAAAADPVALAKQIIEGGLSVRETEALARKAPNLSAGKSKGGRPPRVKDTDTQALESDLSSVLGLDVSIDHRGSTGTLTITYATLEQLDDLCNRLTRGI

Variants of: B1
Assay: one-hybrid fitness for binding NBS DNA (the Noc-binding site; scaled: cognate 1, non-cognate 0); higher = stronger binding
Conditions: with NBS DNA site
Summary of the method: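 Fitness is the rescaled log change in variant-to-wild-type read ratio, measured by Illumina sequencing of plasmids before and after bacterial one-hybrid selection. The scale puts cognate at 1 and non-cognate at 0. Selection of Caulobacter ParB libraries, four specificity codons randomised, took place in E. coli USO with a HIS3 reporter, site 19 bp from the promoter, over 48 hours at 37°C on M9-minus-histidine with 0.1 mM IPTG and 5 mM 3-AT.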

Variant	one-hybrid fitness for binding NBS DNA
MSSY	≤ 0.2
LQIK	≤ 0.2
PHPE	≤ 0.2
LARL	≤ 0.2
TWPC	≤ 0.2
HPRE	≤ 0.2
EKRF	≤ 0.2
SSFM	≤ 0.2
EASI	≤ 0.2
PMNK	≤ 0.2
VTDD	≤ 0.2
PSDQ	≤ 0.2
HLKL	≤ 0.2
SNWS	≤ 0.2
YHHH	≤ 0.2
MWAT	≤ 0.2
HDDC	≤ 0.2
DCES	≤ 0.2
ALVA	≤ 0.2
SKYV	≤ 0.2
GFDR	≤ 0.2
HHHG	≤ 0.2
MTSQ	≤ 0.2
QRHH	0.61
MPAT	≤ 0.2
EAWG	≤ 0.2

Variant	one-hybrid fitness for binding NBS DNA
PDDG	≤ 0.2
LYCG	≤ 0.2
DVHG	≤ 0.2
KQKT	0.222
PLYK	≤ 0.2
KGDV	≤ 0.2
GRCG	≤ 0.2
HFDY	≤ 0.2
CASD	≤ 0.2
SKPW	≤ 0.2
LLPD	≤ 0.2
NYIV	≤ 0.2
MNGS	≤ 0.2
TTES	≤ 0.2
QMTQ	≤ 0.2
VRGC	≤ 0.2
EPSN	≤ 0.2
WPTC	≤ 0.2
TIRL	≤ 0.2
LYHN	≤ 0.2
EPLG	≤ 0.2
RCIV	≤ 0.2
AANF	≤ 0.2
ALFG	≤ 0.2
IVVM	≤ 0.2
RAQA	≤ 0.2

Variant	one-hybrid fitness for binding NBS DNA
WDKT	≤ 0.2
NFVE	≤ 0.2
QCTN	≤ 0.2
AEGL	≤ 0.2
YDLV	≤ 0.2
CWNR	≤ 0.2
GVPR	≤ 0.2
TEGV	≤ 0.2
DPFG	≤ 0.2
SNLS	≤ 0.2
IFSW	≤ 0.2
HFSK	≤ 0.2
YRNT	≤ 0.2
ERAT	≤ 0.2
DLNR	≤ 0.2
QVCN	≤ 0.2
NTKS	≤ 0.2
RYHN	≤ 0.2
HINP	≤ 0.2
TTAL	≤ 0.2
GAPF	≤ 0.2
MHRM	≤ 0.2
QDCT	≤ 0.2
QRVI	≤ 0.2
ANQG	≤ 0.2
CNTT	≤ 0.2

Variant	one-hybrid fitness for binding NBS DNA
IMWC	≤ 0.2
RDGM	≤ 0.2
GPML	≤ 0.2
ASLD	≤ 0.2
HHSF	≤ 0.2
IFER	≤ 0.2
RIRV	≤ 0.2
YRGY	≤ 0.2
RDKH	≤ 0.2
FSSR	≤ 0.2
VSMW	≤ 0.2
HTNF	≤ 0.2
HTQN	≤ 0.2
QNKM	≤ 0.2
TDDG	≤ 0.2
HHKW	≤ 0.2
CASY	≤ 0.2
QSHQ	≤ 0.2
TTKT	≤ 0.2
TTNC	≤ 0.2
DMCG	≤ 0.2
YLVH	≤ 0.2
SELD	≤ 0.2
PDFR	≤ 0.2
CSLF	≤ 0.2
SSPK	≤ 0.2

Variant	one-hybrid fitness for binding NBS DNA
AAAR	≤ 0.2
KDKC	≤ 0.2
TMLE	≤ 0.2
AQES	≤ 0.2
TKLG	≤ 0.2
PKSI	≤ 0.2
RMPF	≤ 0.2
LEQM	≤ 0.2
LHFS	≤ 0.2
LAQN	≤ 0.2
WMNY	≤ 0.2
KRTG	≤ 0.2
FAVS	≤ 0.2
HPPW	≤ 0.2
HPRR	≤ 0.2
GRLS	≤ 0.2
DMFR	≤ 0.2
VGLR	≤ 0.2
EMNL	≤ 0.2
KRGH	≤ 0.2
RHLP	≤ 0.2
IDGW	≤ 0.2
GMCG	≤ 0.2
NFYV	≤ 0.2
RYLI	≤ 0.2
AFQM	≤ 0.2

Variant	one-hybrid fitness for binding NBS DNA
HKSL	≤ 0.2
QGTE	≤ 0.2
HGNC	≤ 0.2
QMQV	≤ 0.2
ASFQ	≤ 0.2
RICN	≤ 0.2
NINA	≤ 0.2
NWQS	≤ 0.2
TTDR	≤ 0.2
QVYF	≤ 0.2
KRGS	0.353
CNTM	≤ 0.2
RTQF	≤ 0.2
RMVN	≤ 0.2
VTQS	≤ 0.2
VALP	≤ 0.2
PPCT	≤ 0.2
CVPD	≤ 0.2
RSWW	≤ 0.2
YMAC	≤ 0.2
VYKR	≤ 0.2
MPGT	≤ 0.2
STTN	≤ 0.2
